From the supplement of paper PMC8728848
The list shows a part of the results.

Key:
Test in all cases: glycan array binding signal (z-score within array); higher = stronger binding
Conditions in all cases: glycan notation: IUPAC condensed, linker removed
[1] = target: Gal(b1-4)GlcNAc(b1-2)Man(a1-6)[Man(a1-3)]Man(b1-4)GlcNAc(b1-4)GlcNAc
Procedure, shortened: (§1)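 Negative Z-scores can be read as non-binding. The Z-score is calculated within each array and then averaged across arrays of one protein sequence at different concentrations or buffers and across linkers. Arrays, 3228 in all, were curated from the Consortium for Functional Glycomics database and kept only where the protein sequence was available.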

[2] = target: Gal(b1-4)GlcNAc(b1-2)[Gal(b1-4)GlcNAc(b1-4)]Man(a1-3)[Gal(b1-4)GlcNAc(b1-2)Man(a1-6)]Man(b1-4)GlcNAc(b1-4)GlcNAc
Procedure, shortened: as §1

[3] = target: Gal(b1-4)GlcNAc(b1-2)[Gal(b1-4)GlcNAc(b1-4)]Man(a1-3)[Gal(b1-4)GlcNAc(b1-2)[Gal(b1-4)GlcNAc(b1-6)]Man(a1-6)]Man(b1-4)GlcNAc(b1-4)GlcNAc
Procedure, shortened: as §1

[4] = target: Gal(b1-4)GlcNAc(b1-2)[Gal(b1-4)GlcNAc(b1-4)]Man(a1-3)[GlcNAc(b1-4)][Gal(b1-4)GlcNAc(b1-2)Man(a1-6)]Man(b1-4)GlcNAc(b1-4)GlcNAc
Procedure, shortened: as §1

[5] = target: Gal(b1-4)GlcNAc(b1-2)[Gal(b1-4)GlcNAc(b1-4)]Man(a1-3)[GlcNAc(b1-4)][Gal(b1-4)GlcNAc(b1-2)[Gal(b1-4)GlcNAc(b1-6)]Man(a1-6)]Man(b1-4)GlcNAc(b1-4)GlcNAc
Procedure, shortened: as §1

[6] = target: Gal(b1-4)GlcNAc(b1-2)[Gal(b1-4)GlcNAc(b1-6)]Man(a1-6)[Gal(b1-4)GlcNAc(b1-2)Man(a1-3)]Man(b1-4)GlcNAc(b1-4)GlcNAc
Procedure, shortened: as §1

[7] = target: Gal(b1-4)GlcNAc(b1-2)[Gal(b1-4)GlcNAc(b1-6)]Man(a1-6)[Gal(b1-4)GlcNAc(b1-2)Man(a1-3)]Man(b1-4)GlcNAc(b1-4)[Fuc(a1-6)]GlcNAc
Procedure, shortened: as §1

[8] = target: Gal(b1-4)GlcNAc(b1-2)[Gal(b1-4)GlcNAc(b1-6)]Man(a1-6)[GlcNAc(b1-4)][Gal(b1-4)GlcNAc(b1-2)Man(a1-3)]Man(b1-4)GlcNAc(b1-4)GlcNAc
Procedure, shortened: as §1

[9] = target: Gal(b1-4)GlcNAc(b1-2)[Gal(b1-4)GlcNAc(b1-6)]Man(a1-6)[GlcNAc(b1-4)][Gal(b1-4)GlcNAc(b1-2)[Gal(b1-4)GlcNAc(b1-4)]Man(a1-3)]Man(b1-4)GlcNAc(b1-4)[Fuc(a1-6)]GlcNAc
Procedure, shortened: as §1

[10] = target: Gal(b1-4)GlcNAc(b1-3)Gal(b1-3)GalNAc
Procedure, shortened: as §1

[11] = target: Gal(b1-4)GlcNAc(b1-3)Gal(b1-3)GlcNAc
Procedure, shortened: as §1

[12] = target: Gal(b1-4)GlcNAc(b1-3)Gal(b1-4)Glc
Procedure, shortened: as §1

[13] = target: Gal(b1-4)GlcNAc(b1-3)Gal(b1-4)GlcNAc
Procedure, shortened: as §1

[14] = target: Gal(b1-4)GlcNAc(b1-3)Gal(b1-4)GlcNAc(b1-2)Man(a1-3)[Gal(b1-4)GlcNAc(b1-3)Gal(b1-4)GlcNAc(b1-2)Man(a1-6)]Man(b1-4)GlcNAc(b1-4)GlcNAc
Procedure, shortened: as §1

[15] = target: Gal(b1-4)GlcNAc(b1-3)Gal(b1-4)GlcNAc(b1-2)Man(a1-3)[Gal(b1-4)GlcNAc(b1-3)Gal(b1-4)GlcNAc(b1-2)Man(a1-6)]Man(b1-4)GlcNAc(b1-4)[Fuc(a1-6)]GlcNAc
Procedure, shortened: as §1

[16] = target: Gal(b1-4)GlcNAc(b1-3)Gal(b1-4)GlcNAc(b1-2)[Gal(b1-4)GlcNAc(b1-3)Gal(b1-4)GlcNAc(b1-6)]Man(a1-6)[Gal(b1-4)GlcNAc(b1-3)Gal(b1-4)GlcNAc(b1-2)Man(a1-3)]Man(b1-4)GlcNAc(b1-4)GlcNAc
Procedure, shortened: as §1

[17] = target: Gal(b1-4)GlcNAc(b1-3)Gal(b1-4)GlcNAc(b1-2)[Gal(b1-4)GlcNAc(b1-3)Gal(b1-4)GlcNAc(b1-6)]Man(a1-6)[Gal(b1-4)GlcNAc(b1-3)Gal(b1-4)GlcNAc(b1-2)Man(a1-3)]Man(b1-4)GlcNAc(b1-4)[Fuc(a1-6)]GlcNAc
Procedure, shortened: as §1

[18] = target: Gal(b1-4)GlcNAc(b1-3)Gal(b1-4)GlcNAc(b1-3)Gal(b1-4)GlcNAc
Procedure, shortened: as §1

B1: PX14343B-bfa-546-20-546 (Bacteroides fragilis) (protein)
chain: CDLERYPLTDLSEETFWNSESNAELALTSLYRGSLTDGVEYNPSDWWSYHGMIMMEHLSDNAFDRRGENNPFFKISSGNLTADNAFIKRYWETSYKRIGYCNRFLVGIQNSSESEKKTRMIAEARFLRATQYFYLASYFKNVPLVENVLTGEEANNVTKTSQADILKWCVTEFTAAAADLPRFSAIPAGEAGRACKQAALAFLGRTCMLQKDWKSGAKAFHDIMELGDNAINANYQELFYPSTGTSNKENIFYIQYLENYLGTGLPQHALSAKDGGWSLVNPAADLYESYEFKDGTPFSYDDPRYDPSNLGKDRDPRLDYTIYYNGAIFMGTEYKMSPDYSAAKKEKLDYTSEASRTGFMMRKYFEESTPINDVQSANGLTPVIRYAEVLLGYLECLVEDNQTITQGILDETINAVRGRASVNMPPVTEVTPAKLREIVRHERRIELAMEGIRYWDIMRWGIAHEVLSQKIWGAPYPGSTQYATTTKEVDPTGNYRWYVGKRAFRNPTDYTWPIPQSEQNINPNLRD
- glycan array binding signal (z-score) [1]: -0.129
- glycan array binding signal (z-score) [2]: -0.126
- glycan array binding signal (z-score) [3]: -0.125
- glycan array binding signal (z-score) [4]: -0.12
- glycan array binding signal (z-score) [5]: -0.081
- glycan array binding signal (z-score) [6]: -0.128
- glycan array binding signal (z-score) [7]: -0.104
- glycan array binding signal (z-score) [8]: -0.134
- glycan array binding signal (z-score) [9]: -0.123
- glycan array binding signal (z-score) [10]: -0.111
- glycan array binding signal (z-score) [11]: -0.126
- glycan array binding signal (z-score) [12]: -0.123
- glycan array binding signal (z-score) [13]: -0.132
- glycan array binding signal (z-score) [14]: -0.109
- glycan array binding signal (z-score) [15]: -0.108
- glycan array binding signal (z-score) [16]: -0.122
- glycan array binding signal (z-score) [17]: -0.119
- glycan array binding signal (z-score) [18]: -0.113
